# ± gives the standard deviation of the averaged measurements. The full ranking holds about 33,000 sequences; the median of “E-score (dimensionless, -0.5 to 0.5)” is about -0.046, and the highest 2% start at about 0.36. Some of the results follow.
# Tested on: T1, SpTbr T-box DNA-binding domain (GST fusion)
# T1 sequence: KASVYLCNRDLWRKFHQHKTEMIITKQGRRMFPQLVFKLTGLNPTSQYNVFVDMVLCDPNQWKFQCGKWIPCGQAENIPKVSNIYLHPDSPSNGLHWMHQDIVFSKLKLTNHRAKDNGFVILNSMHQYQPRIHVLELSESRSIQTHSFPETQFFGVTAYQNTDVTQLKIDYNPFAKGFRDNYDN
# Experiment: PBM E-score of 8-mer (E-score (dimensionless, -0.5 to 0.5)); Tbr is Tbrain of the sea star Patiria miniata (Pm) or the sea urchin Strongylocentrotus purpuratus (Sp); higher = stronger binding preference; most listed sequences are background and not binding sites
# Conditions: the construct has about 5 more residues each side
# Method in brief: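 Expression of GST-fused Tbr T-box DNA-binding domains, each holding the full T-box plus roughly five flanking residues, was carried out in BL21 E. coli at 20 °C, with purification by glutathione affinity chromatography. Universal Agilent arrays made double-stranded by primer extension were incubated with the protein at 200 nM in PBS (pH 7.5), then scanned and quantified. All ungapped 8-mers were scored from probe intensities, and each received an enrichment E-score from the Universal PBM Analysis Suite, averaged over duplicate arrays.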
row,Sequence,PBM E-score of 8-mer
1,CATCATTA,-0.0886 ± 0.042
2,TTATATAA,-0.136 ± 0.014
3,GAGCATGC,-0.143 ± 0.032
4,AGCGGCGG,0.0106 ± 0.091
5,AGCATATA,-0.272 ± 0.061
6,GGGTCAGA,-0.266 ± 0.05
7,CTCTACAA,0.114 ± 0.0044
8,AGATACAA,-0.189 ± 0.07
9,CCAACTGC,0.0365 ± 0.11
10,ACAGCGGA,-0.0534 ± 0.11
11,AAGCGGGA,-0.132 ± 0.011
12,CACCGAGA,-0.05 ± 0.023
13,AACCGCAC,0.177 ± 0.0074
14,AGGGAATA,-0.112 ± 0.046
15,TATATATA,0.012 ± 0.058
16,ATGCATGG,-0.151 ± 0.12
17,AGACCTCC,-0.3619 ± 0.0028
18,ACGTACGC,0.107 ± 0.05
19,CAAGCATC,-0.11 ± 0.078
20,ATCTGGTA,-0.262 ± 0.038
21,GTAAGTTA,-0.165 ± 0.12
22,CGTTATTA,-0.0775 ± 0.1
23,ACAAGGAC,-0.173 ± 0.021
24,CTCGTCTC,0.0515 ± 0.0079
25,CTCTTCAG,-0.161 ± 0.062

row,Sequence,PBM E-score of 8-mer
1,GCCGTTTA,0.0646 ± 0.08
2,CCTACGGA,-0.25 ± 0.0069
3,CGTTTGTA,0.0192 ± 0.0019
4,GAAGTGGC,0.26 ± 0.012
5,ATGTTCAC,0.295 ± 0.058
6,AGGCGCTG,0.225 ± 0.018
7,CCGACATC,-0.0547 ± 0.029
8,TATCCGCA,0.00769 ± 0.072
9,GAGAATCA,-0.052 ± 0.024
10,ATTCCAGA,-0.00543 ± 0.064
11,CATGGGGA,-0.317 ± 0.054
12,GATGTCAA,0.197 ± 0.0064
13,CATGCTCC,-0.0116 ± 0.078
14,AGTGCGGG,0.143 ± 0.0067
15,AGAACAGA,-0.267 ± 0.041
16,CTTTTGAC,0.144 ± 0.025
17,TGGAAAAA,-0.0445 ± 0.051
18,CGACCAAG,-0.0565 ± 0.0009
19,AGTACTAG,-0.27 ± 0.068
20,CCTCAGGC,-0.167 ± 0.051
21,CGATAAAA,0.0615 ± 0.11
22,ACCCTTAC,0.0719 ± 0.021
23,AACCTTGC,0.00568 ± 0.0057
24,CTTTCAAC,-0.0325 ± 0.08
25,GTCGTCCA,0.031 ± 0.034

row,Sequence,PBM E-score of 8-mer
1,ACATATGA,0.00819 ± 0.073
2,CGGACTCC,-0.284 ± 0.11
3,AGGGTTAG,-0.081 ± 0.019
4,AAGACCGG,-0.189 ± 0.056
5,CACGTCTG,0.268 ± 0.035
6,CAGCTAGG,0.101 ± 0.087
7,ACGTCACA,0.276 ± 0.012
8,CGATATAG,-0.0337 ± 0.026
9,CGGTGAAC,0.0226 ± 0.027
10,GGGCGACC,-0.122 ± 0.055
11,GCGGAACA,-0.0407 ± 0.0032
12,AAATACAC,0.0823 ± 0.03
13,CAACTGCA,-0.0857 ± 0.016
14,CTTTGTTA,0.0827 ± 0.039
15,CACGCTCG,0.225 ± 0.031
16,AGCGCCCC,0.149 ± 0.0046
17,ACCCGTCA,0.318 ± 0.013
18,AGTGCAAA,0.304 ± 0.058
19,ATTATGAC,-0.0939 ± 0.058
20,CGGGACCC,-0.304 ± 0.0023
21,CTTGAGGA,-0.241 ± 0.022
22,AATGGGAC,-0.00757 ± 0.023
23,CACGATCG,0.117 ± 0.061
24,GTGAGCAC,0.211 ± 0.045
25,CAGGTGCA,0.265 ± 0.028

row,Sequence,PBM E-score of 8-mer
1,CAACATAA,0.0107 ± 0.073
2,CAAATCGG,-0.0523 ± 0.043
3,AGTGGGTG,0.236 ± 0.038
4,AACCCTGG,0.0248 ± 0.023
5,CCTTGACA,0.24 ± 0.035
6,CTTTTTGA,0.184 ± 0.057
7,ACATATCT,0.0956 ± 0.0092
8,ACTTAGCC,-0.056 ± 0.0053
9,CGCTGTTA,0.0348 ± 0.018
10,AATGTGTG,0.4245 ± 0.0035
11,GTGTCGAA,0.349 ± 0.0077
12,AACAAAGG,-0.0402 ± 0.053
13,CCGACTTA,0.0269 ± 0.13
14,CCACCACA,0.131 ± 0.073
15,AGAGTCAG,-0.372 ± 0.056
16,ATTGTGTA,0.122 ± 0.027
17,AGCAGGAG,-0.218 ± 0.0031
18,AACCTAAA,0.0109 ± 0.031
19,AGATGATA,-0.078 ± 0.14
20,CACACTTC,0.4456 ± 0.0039
21,CATTGCCG,0.0537 ± 0.1
22,AGTAGACA,-0.0292 ± 0.034
23,CCCGTCAA,0.202 ± 0.034
24,AGGTACGA,-0.0328 ± 0.12
25,GAAGCCAC,-0.085 ± 0.12

row,Sequence,PBM E-score of 8-mer
1,AAACAGCT,0.0803 ± 0.013
2,GAAGCAGA,-0.06 ± 0.00081
3,GATGAATA,-0.0772 ± 0.011
4,CATGAGTC,-0.08024 ± 0.00076
5,TAGAGCCA,0.0709 ± 0.015
6,AATGAATC,-0.246 ± 0.019
7,CACTTCTG,0.309 ± 0.011
8,CATTTTTA,-0.178 ± 0.051
9,AGCTGCTA,0.124 ± 0.035
10,CACTAATC,0.12 ± 0.017
11,GCTACGAC,0.0563 ± 0.026
12,AACGACTC,-0.0378 ± 0.041
13,CAGCGCGC,0.0347 ± 0.044
14,ACCGGCAG,0.0149 ± 0.061
15,CTGGAAAC,-0.205 ± 0.064
16,GCTACACA,0.0072 ± 0.014
17,CTACATTC,-0.286 ± 0.017
18,GGAAAACC,0.00278 ± 0.019
19,GCCCGTCA,-0.0389 ± 0.012
20,CTATTCCC,-0.215 ± 0.049
21,ATTGGGAA,-0.0416 ± 0.0068
22,TGCTTTAA,-0.0209 ± 0.029
23,GACGTTCA,-0.000445 ± 0.014
24,GCGGCCCA,-0.3 ± 0.021
25,CCCTTACA,0.0713 ± 0.043

row,Sequence,PBM E-score of 8-mer
1,CCGAGTGC,-0.00521 ± 0.009
2,AATCCTGA,-0.0918 ± 0.0086
3,CATGTTCA,-0.0155 ± 0.047
4,ATTAGTAA,-0.227 ± 0.081
5,ATCGTTCG,0.122 ± 0.018
6,GAGCCCTA,-0.23 ± 0.011
7,CACGAATC,0.0953 ± 0.041
8,CGTATACA,-0.074 ± 0.0067
9,CATCCATC,-0.232 ± 0.06
10,GCGTCGAC,0.114 ± 0.082
11,GTTCTTGA,-0.146 ± 0.062
12,GGCCAAAA,-0.169 ± 0.019
13,AGATGCGG,-0.0902 ± 0.005
14,CACCATAG,0.176 ± 0.031
15,CATAACAC,0.405 ± 0.028
16,CCAACCTA,-0.218 ± 0.044
17,CATGCAAA,-0.213 ± 0.019
18,CATCTCAG,-0.117 ± 0.059
19,ACGACACC,0.419 ± 0.02
20,CAGCTGCG,0.123 ± 0.084
21,ACCGTAGA,-0.214 ± 0.048
22,AACCACCG,-0.212 ± 0.011
23,ACGCGGAA,-0.138 ± 0.009
24,CTATCGAA,-0.142 ± 0.098
25,GTACTTCA,-0.119 ± 0.025

row,Sequence,PBM E-score of 8-mer
1,AGCACTCA,0.079 ± 0.03
2,GACATTTA,-0.262 ± 0.0052
3,CATCATCA,0.103 ± 0.073
4,AAGGGCGG,-0.201 ± 0.031
5,CGTACACG,-0.0119 ± 0.045
6,CGTTGGAC,-0.0488 ± 0.1
7,AAAGAAGA,-0.132 ± 0.013
8,ACGGTGGC,0.126 ± 0.087
9,CCGGTATC,-0.0899 ± 0.063
10,AACGCAGG,-0.195 ± 0.075
11,ACCCGGTG,0.0464 ± 0.016
12,CAAATGGC,-0.179 ± 0.045
13,ACGATGAA,-0.2 ± 0.057
14,CGACGAAA,0.218 ± 0.0064
15,CGGTCTGC,-0.0345 ± 0.046
16,AATTCCAT,-0.0076 ± 0.035
17,ATTGTCCC,-0.129 ± 0.0043
18,GATAACCC,0.0355 ± 0.017
19,GACTTGGA,-0.167 ± 0.016
20,CTGAGGAA,-0.0516 ± 0.024
21,CTGCTATC,-0.0252 ± 0.0065
22,GGTCTTGA,-0.15 ± 0.037

# From the supplement of paper PMC4166925
